Consider 44 sequences from the supplement of paper PMC11417369.

± gives the standard deviation of the averaged measurements. Some of the results follow.

The assay concerns PfAP2-EXP AP2 domain (GST-tagged). The experiment in a line: gcPBM binding intensity (ln(normalized median fluorescence intensity)); higher = stronger DNA binding. In a few lines: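 Binding of GST-tagged P. falciparum DNA-binding domains, expressed in E. coli and used at about 25 μg on average, was carried out for 1 h in 1× PBS containing 1% milk, 0.2 mg/ml BSA, 0.5% salmon testes DNA and 0.03% Triton X-100. The target was an Agilent 4 × 180k array of primer-extended double-stranded 36-bp intergenic genomic probes plus negative controls, read with Alexa488 anti-GST antibody at 488 nm. Binding intensity is the highest Masliner-normalised natural-log median intensity across replicate spots of either probe orientation.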
For “ATATAAATATATGTATGTACACATTTTTTTTTTTTT [XGTACX_site247]”, the “gcPBM binding intensity (ln)” value amounted to 8.27 ± 0.31.
As to TTTATACATACATTCGTGCACATACGTATAACATAT, the “gcPBM binding intensity (ln)” value turned out to be 9.23 ± 0.042.
With “AAACGATCTCGATGTTGTACACATTTATATAGAAAC [XGTACX_site4373]”, the “gcPBM binding intensity (ln)” value stood at 8.86 ± 0.4.
The result for “CTAAACTAAACAAACTGTACACAAATAAAACAATAA [XGTACX_site8880]” reads 8.96 ± 0.36; that for “CATGTGTGTATAATTTGTACATATACATAATAAATA [XGTACX_site2418]”, 8.62 ± 0.38; that for “TACTAAAATATATATATGCAACATGAGATATTCAAC [XGTACX_negctrl_site283]”, 8.85 ± 0.39.
“TCTCATAGGAAACACACACACACACCCACATATATA [CACACA_site1738]”: the “gcPBM binding intensity (ln)” value turned out to be 8.59 ± 0.45.
With “ATATATGTGCGCGTATGTACATAAAATAAATATACA [XGTACX_site2689]”, the “gcPBM binding intensity (ln)” value came to 9.31 ± 0.32.
On to “TAAATAAAAAAAAAAAGTACATACATACAAACATAT [XGTACX_site4427]”, for which the “gcPBM binding intensity (ln)” value was determined as 8.74 ± 0.53.
Turning to “ATATATTTTTTAAATTTAAAAATTATAAAATTTATA [TGCATGCA_negctrl_site36]”, the “gcPBM binding intensity (ln)” value was found to be 8.16 ± 0.45.
With “TGGGTCTCTAACTGGTGTACTATTTACATATTATAC [XGTACX_site8593]”, the “gcPBM binding intensity (ln)” value is 8.75 ± 0.37.
Turning to “TATGATTTTAACAACTGTACAATATAATAAATCTAA [XGTACX_site2198]”, the “gcPBM binding intensity (ln)” value came to 8.38 ± 0.3.
Regarding “TAAAAGAAAAATTAGTGTACCAATATTAACATAAAA [XGTACX_site5474]”, the “gcPBM binding intensity (ln)” value is 8.38 ± 0.43.
“ATATATTTTTAATTACGTACTTAATAATATATACAA [XGTACX_site3285]”: the “gcPBM binding intensity (ln)” value was 8.52 ± 0.23.
As to “TATACAATATATTTTGGTACACAAACAAAAAAATAT [XGTACX_site2522]”, the “gcPBM binding intensity (ln)” value turned out to be 8.76 ± 0.45.
For “ATTAAAAGAACCAAGTGTACATTCTATATATAAAAA [XGTACX_site4260]”, the “gcPBM binding intensity (ln)” value was determined as 8.56 ± 0.38.
As for “GTTCACCAAAGGTAACGTACACAAACATATATATAT [XGTACX_site1073]”, the “gcPBM binding intensity (ln)” value worked out at 9.705 ± 0.064.
Regarding “ATATTATGATCTATTTTTATATTCTATTTGATAAAT [CACACA_negctrl_site1070]”, the “gcPBM binding intensity (ln)” value was 8.43 ± 0.44.
For “GAAAAAGACAAAAGGTGTACAATATGAAATATATAT [XGTACX_site373]”, the “gcPBM binding intensity (ln)” value was found to be 8.88 ± 0.31.
The result for “TAATTCTAAATAAATGTACACACAAAAATAAATGTA [CACACA_site8509]” reads 8.61 ± 0.26; that for “TTATAAAATTTTCTTCTATATTTTAATTATTCTCAT [TGCATGCA_negctrl_site571]”, 8.38 ± 0.67.
As for “TTGATAAAATGGGAGAAATTAAAAAGGAAAAAAAAA [CACACA_negctrl_site1279]”, the “gcPBM binding intensity (ln)” value came to 8.29 ± 0.24.
On to “CTATTTTATATGTGCACACATATACACCCACAAATA [CACACA_site1131]”, for which the “gcPBM binding intensity (ln)” value was found to be 9.025 ± 0.078.
In the case of “TATATATATATTATATGTACATAAATATTTATACTC [XGTACX_site114]”, the “gcPBM binding intensity (ln)” value stood at 9.4 ± 0.2.
“AAAAAAATAACAAAATGTATACAATATAACAAAAAT [GTGCAC_negctrl_site512]”: the “gcPBM binding intensity (ln)” value came to 8.94 ± 0.4.
Take “AACATATACCCAGGTACATGCAAATATATATATTAT [TGCATGCA_site878]”: the “gcPBM binding intensity (ln)” value worked out at 8.95 ± 0.42.
Turning to “ATATATATATATATGTGTACACAACAAAATAAAAAA [XGTACX_site7378]”, the “gcPBM binding intensity (ln)” value is 10.2 ± 0.26.
On to “TTTAAAAATTAATTCTGTACACATTTTTATTTTATT [XGTACX_site8]”, for which the “gcPBM binding intensity (ln)” value was found to be 8.46 ± 0.24.
On to “TTCTTTCTTCAAAAGTGTACCAAATGTTAGAAAGGT [XGTACX_site4353]”, for which the “gcPBM binding intensity (ln)” value was 9.34 ± 0.31.
The result for “TTTATTTATTATTAAAGTACTAAATCATATTATTAT [XGTACX_site992]” reads 8.11 ± 0.3; that for “TATACATTATCTTATGCATGCGCATCTGCATATAAA [TGCATGCA_site266]”, 9.63 ± 0.29.
Take “TATTTATATATTATGTGTCCACATGTAAGCTATCTT [XGTACX_site3887]”: the “gcPBM binding intensity (ln)” value is 8.57 ± 0.22.
Regarding “CCACTAATAAATATTACACACATATATATATATATT [CACACA_site3128]”, the “gcPBM binding intensity (ln)” value came to 8.53 ± 0.32.
For the sequence “TTTTCTTTTTTCTGTTGTACTAAAAATAATTTTGTA [XGTACX_site5171]”, the “gcPBM binding intensity (ln)” value stood at 8.78 ± 0.48.
In the case of “ATATATACATATAACACACACATATATATATATATA [CACACA_site2575]”, the “gcPBM binding intensity (ln)” value is 10.1 ± 0.49.
Consider “AGTATAAATAAATCATAAACATATATATATATATAT [GTGCAC_negctrl_site356]”, for which the “gcPBM binding intensity (ln)” value was 9.99 ± 0.52.
Turning to “ATTCATTTCTATTTTACACACAATAAGTAACTTAAT [CACACA_site2850]”, the “gcPBM binding intensity (ln)” value was determined as 8.69 ± 0.47.
As for “CTCATCCTTACATACACACACATATATATATATATA [CACACA_site103]”, the “gcPBM binding intensity (ln)” value is 10.2 ± 0.29.
For the sequence “ATATTTAAATCGAAGGTGCGTATTTCCTTTTTTTTT [GTGCAC_site9632]”, the “gcPBM binding intensity (ln)” value was determined as 8.56 ± 0.32.
Take “ATTATTATATATATAACACACATAATTATATACTTA [CACACA_site1563]”: the “gcPBM binding intensity (ln)” value was 8.52 ± 0.4.
For the sequence “TCCTTAAAAATCTAAAAAGAAAAAAACATATATTTT [GTGCAC_negctrl_site123]”, the “gcPBM binding intensity (ln)” value was found to be 8.04 ± 0.45.
“TATACCTATAAATACACACACATATATAAATATGTA [CACACA_site6625]”: the “gcPBM binding intensity (ln)” value worked out at 8.38 ± 0.26.
Consider “AAATAAAAACCATATCGTACAAAAATTTTTGTATTT [XGTACX_site7497]”, for which the “gcPBM binding intensity (ln)” value was found to be 8.62 ± 0.35.
On to “ATATATATATATATATGTACTTAAAAATTTGTTTTG [XGTACX_site1514]”, for which the “gcPBM binding intensity (ln)” value was found to be 10.1 ± 0.62.
